The whole screen tested about 310,000 compounds, of which about 14,000 (4.5%) showed an effect of 50% or more. Effects have a minus sign here. This is one part of the list.
target: human ether-à-go-go-related gene (hERG) potassium channel (human, UniProt Q12809); test: primary screen, population patch clamp on CHO cells stably expressing hERG
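Further: peak tail current of the secondary pulse compared with the same well before compound.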

Sequence of human ether-à-go-go-related gene (hERG) potassium channel (Q12809 whole entry, looked up): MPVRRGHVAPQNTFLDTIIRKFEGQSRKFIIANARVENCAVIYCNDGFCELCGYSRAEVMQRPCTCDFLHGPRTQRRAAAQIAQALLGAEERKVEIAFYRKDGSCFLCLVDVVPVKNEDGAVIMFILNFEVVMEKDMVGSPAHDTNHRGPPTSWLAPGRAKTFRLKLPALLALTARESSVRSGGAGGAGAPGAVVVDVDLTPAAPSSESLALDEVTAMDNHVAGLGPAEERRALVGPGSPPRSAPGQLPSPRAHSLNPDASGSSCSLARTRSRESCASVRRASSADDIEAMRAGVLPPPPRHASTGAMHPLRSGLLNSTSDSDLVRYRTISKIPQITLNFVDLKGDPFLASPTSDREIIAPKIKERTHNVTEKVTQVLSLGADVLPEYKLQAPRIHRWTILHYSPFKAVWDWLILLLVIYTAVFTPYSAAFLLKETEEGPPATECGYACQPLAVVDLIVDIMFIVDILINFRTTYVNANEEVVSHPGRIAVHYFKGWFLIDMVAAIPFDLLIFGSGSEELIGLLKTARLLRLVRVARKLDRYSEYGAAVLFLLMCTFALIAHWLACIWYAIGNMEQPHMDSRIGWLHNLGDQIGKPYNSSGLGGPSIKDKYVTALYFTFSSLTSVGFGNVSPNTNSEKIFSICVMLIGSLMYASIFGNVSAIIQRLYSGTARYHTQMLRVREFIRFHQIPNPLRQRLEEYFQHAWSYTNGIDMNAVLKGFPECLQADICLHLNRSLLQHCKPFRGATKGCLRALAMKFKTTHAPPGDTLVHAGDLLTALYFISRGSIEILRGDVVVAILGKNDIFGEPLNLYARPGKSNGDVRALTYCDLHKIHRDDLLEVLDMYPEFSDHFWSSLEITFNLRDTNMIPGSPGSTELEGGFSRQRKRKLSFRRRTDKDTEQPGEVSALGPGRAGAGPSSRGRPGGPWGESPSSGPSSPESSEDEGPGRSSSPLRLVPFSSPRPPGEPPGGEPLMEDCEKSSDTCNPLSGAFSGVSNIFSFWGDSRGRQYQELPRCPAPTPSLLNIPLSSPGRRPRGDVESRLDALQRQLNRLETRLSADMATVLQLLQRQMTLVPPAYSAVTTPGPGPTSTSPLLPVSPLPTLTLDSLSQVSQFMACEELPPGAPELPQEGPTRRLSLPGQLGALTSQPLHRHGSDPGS

SMILES	hERG current change (%, negative = inhibition) at 10uM [%]
c1coc(CN=C2NC(=NCc3ccco3)c3ccccc32)c1	-66.4
CCOc1cc(/C=C(\C#N)C(=O)Nc2cccc(C(=O)O)c2)cc(Br)c1OC(=O)c1ccc(OC)cc1	12.9
COc1cccc(C2NC(=O)NC(C)=C2C(=O)Nc2cccc(C)c2C)c1 (centres unmarked)	5.71
COCCCN1CC23C=CC(O2)C(C(=O)O)C3C1=O (centres unmarked)	3.86
Cc1ccc(Nc2nc(CSc3nnc(-c4ccncc4)n3-c3ccccc3C)cs2)cc1	-6.91
CCC1(C)CC(=O)N(c2ccc(F)c(Cl)c2)C(=O)C1	19.8
COc1ccc2c(c1)c(CC(=O)O)c(C)n2C(=O)c1ccc(Cl)cc1	6.45
COc1cc(C(C)=O)ccc1COc1ccc(C(=O)OCC(=O)NC2CCS(=O)(=O)C2)cc1OC (centres unmarked)	7.35
COc1ccc(OC)c(NC(=O)c2cccc(N3C(=O)C4C5C=CC(C6CC56)C4C3=O)c2)c1 (centres unmarked)	-3.87
CC/C(O)=C1\C(=O)CC(C)(C)CC1=NCCc1nc2ccccc2[nH]1	7.76
O=C1c2ccccc2S(=O)(=O)c2cc(C(=O)N3CCN(c4ncccn4)CC3)ccc21	3.25
COc1cc(Cl)cc(C#N)c1OCC(=O)O	11
Cc1ccc(NC(=O)Cc2nnc(SCC(=O)Nc3nncs3)n2C)cc1	-1.48
COc1cc(C(F)(F)F)nc2ccc(C#CCOC(=O)Nc3ccccc3)cc12	13.7
CC(Oc1ccc(Cl)cc1Cl)/C(N)=N/O (centres unmarked)	8.02
Cc1cc(=O)oc2c(CN3CCCC3)c(O)ccc12	28.3
O=c1[nH]c(=O)n(Cc2ccccc2)c2nc(-c3ccco3)cc(C(F)(F)F)c12	29.6
COC(=O)CCN(C(=O)c1cc(OC)c(OC)c(OC)c1)c1ccccn1	6.81
COC(=O)c1sc(-c2cccs2)cc1NC(=O)/C=C/C(=O)O	7.29
COc1ccc(-c2csc3nc(-c4ccc(C)cc4)oc(=O)c23)cc1OC	3.27
NS(=O)(=O)c1ccc(CCNC(=O)CCCn2ncn3c(cc4occc43)c2=O)cc1	24.3
O=C(NCCN1C(=O)S/C(=C\c2cccnc2)C1=O)c1cc(S(=O)(=O)N2CCOCC2)ccc1F	-59

SMILES	hERG current change (%, negative = inhibition) at 10uM [%]
O=C1OCc2ccc(NC(=O)c3sccc3Cl)cc21	8.11
O=C(O/N=C(/c1ccccc1)c1ccncc1)c1ccc(F)cc1	17.1
O=c1c2ccccc2nnn1CSc1nnc(COc2ccc(Cl)cc2)n1Cc1ccco1	-22.2
CC1CC1c1ccc(/C=C(\C#N)C(=O)Nc2ccccc2Cl)o1 (centres unmarked)	-1.1
CCC(C)Sc1nnc(NS(=O)(=O)Cc2ccccc2)s1 (centres unmarked)	18.7
COC(=O)c1scc(C)c1N/N=C(\C)c1cc(F)c(Cl)cc1F	16.6
Cc1ccc(NC(=O)c2cc(S(=O)(=O)NCCc3ccccc3)ccc2F)cc1Cl	8.85
CN(C)c1ccc(/C=C/[N+](=O)[O-])cc1	-1.81
NC(=O)CSc1nnc(Cn2c(=O)sc3ccccc32)n1-c1cccc(Cl)c1	13.4
Cn1c(NC(=O)c2ccc(F)c(F)c2)cc(=O)n(C)c1=O	7.06
CC(C)(C)OC(=O)NCCC(=O)N/N=C/c1ccc2ncccc2c1	10.6
CN(C)CCNc1nc2c(c(=O)[nH]c(=O)n2C)n1CCOc1ccccc1	-5.88
CCOC(=O)c1ccc(NC(=O)COc2ccccc2CNCCO)cc1	-24
CCN(CC)S(=O)(=O)c1ccc(N2CCCC2)c(NC(=O)C2=NN(c3ccccc3)C(=O)CC2)c1	-32.3
N#Cc1ccccc1/C=N/Nc1nc(-c2ccccc2)c2cc(Cl)ccc2n1	-46.3
Cc1cc(/C=C2/C(=N)N3C(=NC2=O)SN=C3S(C)(=O)=O)c(C)n1-c1ccc(F)cc1	47.6
CC1CCN(c2ccc3nnc(CCC(=O)Nc4cccc(F)c4)n3n2)CC1	-38.1
CCOC(=O)c1cc(OC(=O)c2ccccc2OC)n(-c2ccccc2)n1	-6.17
Cc1cc(C)cc(OCC(=O)OCC(=O)NC2CCCCCC2)c1	21.1
Cc1nc2cc(N)ccc2n1C1CCCCC1.Cl	-6.16
N#Cc1ccc(CSc2nc(N)cc(N)n2)cc1	4.35
CCOc1ccccc1N1C(=O)CC(Sc2n[nH]c(-c3ccccc3)n2)C1=O (centres unmarked)	11.5
